Experimental findings from the antibiotic and cytotoxicity screens of Wong et al. (2023) are described below.

The other results are listed elsewhere or left out.

For one assay, the system named is HSkMC. Briefly: cytotoxicity call (relative viability < 0.9). As to conditions: 10 µM.
The subject of a further assay is HepG2. The experiment in a line: cytotoxicity call (relative viability < 0.9). As to conditions: 10 µM.
The subject of the next assay is S. aureus RN4220. The experiment in a line: growth inhibition call (relative growth <= 0.2). As to conditions: 50 µM.

As to `C[C@H]1CN([C@@H](C)CO)C(=O)c2cccc(NC(=O)C3CCOCC3)c2O[C@@H]1CN(C)S(=O)(=O)c1ccccc1`, the cytotoxicity call in the assay with HSkMC and in the assay on HepG2 was “inactive” throughout. Besides, the growth inhibition call with S. aureus RN4220 was “inactive”.
For `O=C(C[C@@H]1CC[C@@H]2[C@H](COC[C@H](O)CN2C(=O)Nc2ccc(C(F)(F)F)cc2)O1)NCc1ccncn1`, the cytotoxicity call in the assay on HSkMC and with HepG2 was “inactive” each time. For the same compound, the growth inhibition call in the assay on S. aureus RN4220 is “inactive”.
As to `COc1ccc(NC(=O)Nc2ccc3c(c2)CC(=O)N([C@@H](C)CO)C[C@H](C)[C@H](CN(C)C(=O)Nc2ccc(C(F)(F)F)cc2)O3)cc1`, the cytotoxicity call in the assay with HSkMC is “inactive”. Also, the cytotoxicity call with HepG2 was “active”. The growth inhibition call with S. aureus RN4220 is “inactive”.
With `COc1ccc(NC(=O)N(C)C[C@@H]2Oc3c(NC(=O)c4ccc(-c5nccs5)cc4)cccc3C(=O)N([C@@H](C)CO)C[C@H]2C)cc1`, the cytotoxicity call in the assay with HSkMC and in the assay on HepG2 was “inactive” each time. Further, in the assay on S. aureus RN4220, the growth inhibition call was “inactive”.
Take `COc1ccc(S(=O)(=O)N(C)C[C@@H]2Oc3ccc(NS(=O)(=O)c4ccc(F)cc4)cc3CC(=O)N([C@@H](C)CO)C[C@@H]2C)cc1`: the cytotoxicity call in the assay with HSkMC and in the assay on HepG2 was “inactive” throughout. In addition, the growth inhibition call in the assay with S. aureus RN4220 was “inactive”.
In the case of `C[C@H]1CN([C@@H](C)CO)C(=O)Cc2cc(NC(=O)C3CCCCC3)ccc2O[C@H]1CN(C)Cc1ccc(Oc2ccccc2)cc1`, the cytotoxicity call in the assay on HSkMC (human skeletal muscle cells) and in the assay on HepG2 was “active” in each case. In addition, the growth inhibition call with S. aureus RN4220 was “inactive”.
